Results from the supplement of paper PMC3334620.
In all, about 33,000 sequences were measured (“E-score (-0.5 to 0.5)”: median about -0.054, highest 2% from about 0.39 on). This is one part of the list.

Target: Ylr278c (UniProt Q05854)
Experiment: PBM E-score (8-mer binding enrichment) (E-score (-0.5 to 0.5)); higher = stronger / more preferred TF binding; most listed sequences are background and not binding sites
Conditions: protein concentration: 200 nM; construct: GST-DNA-binding domain
Protocol: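 Universal 'all 10-mer' protein binding microarrays (Agilent AMADID 015681) probed with GST-tagged S. cerevisiae TFs (full-length or DBD) made by in vitro transcription/translation (PURExpress), about 100-200 nM. Bound TF was detected with fluorescent anti-GST. Each ungapped 8-mer (which stands for itself and its reverse complement) is scored by the PBM enrichment score (E-score), a modified Wilcoxon-Mann-Whitney statistic from -0.5 to +0.5, computed with the Universal PBM Analysis Suite. Scale: above 0.35 generally sequence-specific binding.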

Sequence	PBM E-score
ATACTCGG	0.256
AAGAATAC	-0.172
GACAATTA	0.0117
ACGAGGCG	0.0264
CCGAGGAG	0.183
CGGAGTAG	0.465
AGATAGCT	-0.0406
ACTGTGTC	-0.0964
ACGAACAA	0.0893
AATTAGGG	0.0237
AGTGTAAC	-0.233
GCCACACA	0.0674
CACGCACA	-0.0318
GAAGAATA	-0.29
CGGGGACG	0.182
AGGGAGCC	-0.151
ACAATCAC	-0.119
CTGGCTAA	-0.123
CAATGGTA	-0.0688
GCAGGCGC	0.12
ATTCGAAC	-0.0636
GCGCACGC	0.154
TGGATGAA	-0.26
ACTTACGC	0.0924
CGCCCCCG	0.235

Sequence	PBM E-score
GACTCTGA	-0.0721
GTCGGGGA	0.329
AAGGCCCC	0.0357
ACAGGGCA	-0.233
GTCTTATA	-0.198
GGTATTCA	0.0137
CACCTGTC	0.0282
AGCACTCC	0.173
CAGATAAG	-0.287
CTGGAACA	-0.157
GCGCTGCA	0.0674
GTCCCGCA	0.163
CCCGCTGC	0.122
CGCGCTGC	-0.00693
AGTTGATA	-0.0704
AGTCACTC	-0.0686
GACTCACA	-0.248
CTGAACAG	-0.328
ACGCGAAA	-0.129
CTCGATCA	-0.0552
ATCTAGTC	0.0095
AAAACTGT	-0.113
AAACTTAC	-0.0868
AGCTAAAC	-0.148
CGTCCTCC	0.266

Sequence	PBM E-score
CGTTATGA	-0.0212
AGAGTCGA	-0.075
CTGACGAA	-0.091
ATGGGATC	-0.0567
CCCCACCA	-0.0198
GCACTGCA	-0.187
GACGCTAA	-0.142
AGCAAACC	0.042
ACGGTCCC	0.0472
CGGTCACG	0.0783
GCCGGCTA	0.301
CAGATCGC	0.0639
AGCGGGAG	0.1
ATATCCCC	0.1
GGGTCACC	-0.16
AGGGCTAC	-0.248
AGCAGCTC	-0.134
ATGGGTCC	0.169
CTTGGTCA	-0.13
GCACGCTA	-0.112
CGCTCATC	-0.055
GCGGAAGA	0.301
ATTAGGTG	-0.123
ACAGCTAA	-0.27
GAACAAGC	-0.0964

Sequence	PBM E-score
ATCATTAG	-0.139
GAAAAGCC	0.228
ATCATACA	-0.157
ACCTGGTA	-0.175
TATGGGCA	-0.266
CGCGTGTC	0.184
TGTTTAAA	-0.18
GCGGCCCC	0.248
AGGTCAGG	-0.184
ATCTGGAC	-0.0422
GGATTTCA	0.338
ATTTTAGC	0.0334
CAAAAGTG	-0.201
CGCTGTCC	0.155
GAGACTCC	0.249
AGGAGAGA	-0.136
GTCAAGTA	-0.367
AAAGAGTG	-0.158
CACTGCGC	-0.0411
GTCCACTA	-0.213
AGTAAAAG	0.043
CGAAAGTC	0.119
AACCCAGG	-0.176
AGTCGGTA	0.0614
ATTGCGAA	-0.0455

Sequence	PBM E-score
TGGAAGAA	-0.0236
ATCATGCC	-0.0981
ACTCTACC	-0.0553
GGTGGTAA	0.119
ATAATTAG	0.0427
ACCATGTG	-0.217
TCCCATCA	-0.249
AAAGCGTC	-0.246
GCGTGGAA	0.0269
GTACAAAC	-0.077
GGCATGTA	-0.101
TATGGTAA	-0.1
GTAAGAAA	-0.0755
CATCCACC	-0.00135
CCAGACCG	0.101
CATAACCA	-0.135
GTGAGTCA	-0.275
ATTAGTGA	0.0356
AACGAGTC	-0.0798
AGCATTGG	-0.0978
AGCCTCGC	-0.236
AGCCCGGC	0.332
AAAGTACT	-0.19
CCCACAGC	-0.298
AACTCGGT	0.00153

Sequence	PBM E-score
AATGAAAT	0.0722
TCTCTGAA	-0.172
GCTCTACC	-0.18
AAAAAGAA	0.0922
AGTATCCC	-0.0714
AACATTGT	0.024
ACATGATG	-0.173
AATTACGG	0.228
ATAGAATC	-0.0193
GTTTTTAA	-0.0406
AACCCATA	-0.0881
ACCCCTCG	-0.12
GCTCCACC	-0.071
AGCTCAAC	-0.0522
AGTGACTG	-0.247
ACCGTCGG	0.312
ATCGCCGG	0.421
AGTGCTGC	-0.113
CAGTTATC	-0.00584
AAAATCTA	-0.138
AAACTCTA	-0.11
CAGGTTAA	-0.192
CTATGAGA	-0.19
ACGAGAGA	-0.101
ATGATGGC	-0.0336

Sequence	PBM E-score
AGCTACAA	0.0768
AGCGGCCA	0.0573
CGATCCCC	0.174
AAAATAGA	0.117
ATTCAGTC	-0.0768
AAATCACA	-0.104
GATGCTAC	-0.144
CCCGTGCC	0.157
TATAGTAA	-0.0256
CCCCCCTC	-0.42
TAGTACGA	-0.0816
CGAGTCGC	-0.0111
AAGCGCAT	-0.0934
ACCAATTA	-0.0992
GACAACAC	-0.0996
TCCCGCAA	0.177
CGTGACGA	-0.00725
ACACTACA	-0.117
ACGGAGGC	0.302
GGAGTTGA	0.241
GATCACGC	0.0827
TATTACCA	-0.0747
CTCCTAGC	-0.174
ACGAATAG	-0.259
CCAGTAGG	-0.101

Sequence	PBM E-score
ACTCTCCG	0.405
ACCCACTG	-0.0317
CAGTACCC	-0.127
ACCTAAAA	-0.0992
GGCGTTCA	0.0988
GCGGTAGA	0.00437
TATACAGA	-0.184
CGCATACA	-0.0291
ACTCTTAT	-0.0467
TCAGGACA	-0.105
CGCGTCTC	0.0846
CATCGCAC	-0.00832
GACCGTTA	0.041
GCGGAATA	0.396
GCATGAAC	0.0795
CGGCGTTC	0.378
CCTAGTAG	-0.189
ATTGATAA	-0.165
CCCGACGA	0.213
CCTGGTAA	-0.087
CAAGACGG	0.063
ACCGAATA	-0.0947
GTCCCGGA	0.439
ACCATCGT	-0.0578
CAGATGGG	-0.172

Sequence	PBM E-score
CACCATGC	-0.0733
AGCACAAA	0.0198
GAGTTTTA	0.139
ACACATAA	-0.0281
CCCCTTAA	-0.112
TCTCGGCA	0.266
TCACGCGA	0.00133
AACGGGAG	0.157
GCACGCAC	-0.152
GCGGGACC	0.216
GAGCTTTA	-0.0266
TAGACGGA	0.289
AAGCTGCT	-0.182
ACACGTAG	-0.231
CCTCGAGA	-0.193
ACCTCACT	-0.138
GAGGCTTA	-0.0425
CGCAGTCC	0.0402
CTTCCAAC	-0.0646
